Laboratory results published in publication PMC7819943, “Rice protein-binding microarrays: a tool to detect cis-acting elements near promoter regions in rice”.
Some of the results follow.

These sequences were tested against T1, OsWOX13 (Oryza sativa, UniProt Q5QMM3 1-267) (assay: protein-binding microarray (RPBM); PBS, 2% BSA, 51.3 ng/ul salmon testes DNA, 50 uM zinc acetate, 200 nM TF, 25 C, 1 h; high values mean tight binding). Conditions: protein: recombinant; tags: N-terminal polyhistidine and DsRed monomer fusion (pET32a); label: CyDye5-dUTP incorporated in the synthesized complementary strand; 3' TTTTT single-stranded linker to array surface; dsDNA, one strand shown.
T1 sequence: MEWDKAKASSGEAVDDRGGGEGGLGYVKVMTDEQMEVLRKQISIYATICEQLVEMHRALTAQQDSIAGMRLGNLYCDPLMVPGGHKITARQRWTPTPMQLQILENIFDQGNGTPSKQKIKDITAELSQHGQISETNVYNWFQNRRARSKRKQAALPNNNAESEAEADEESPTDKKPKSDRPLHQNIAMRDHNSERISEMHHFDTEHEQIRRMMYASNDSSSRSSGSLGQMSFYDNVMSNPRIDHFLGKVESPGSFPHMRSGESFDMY
Procedure, shortened: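 In PBS with 2% BSA, salmon testes DNA and 50 µM zinc acetate, 200 nM protein was incubated on a custom Agilent array at 25 °C for 1 h and then washed off. The array had been made double-stranded by primer extension with Cy5-dUTP and blocked with 2% BSA. The proteins were transcription factors fused N-terminally to polyhistidine and DsRed, expressed in E. coli BL21-CodonPlus and purified on Ni–NTA. The binding signal is per-feature fluorescence intensity (arbitrary units) from an Axon 4000B scanner.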
“GTGCTGATGATTTCGTGTAACCAATTGTTCCTTTGTAACACGGAGTCACCTAGTGCAG” was tested, and the binding signal was 17200 fluorescence intensity (a.u.). In the case of “TTCATGAGATTATTAAATGGACTTATTTCTTTGGTCGTAGCGGAGTCACCTAGTGCAG”, the binding signal is reported as 5020 fluorescence intensity (a.u.). With “CCATAATCATTTAGACGACCCTGCGATGCTAGTGATAGCACGGAGTCACCTAGTGCAG” the binding signal was 5390 fluorescence intensity (a.u.). In the case of “TTTAATTAACATTTATATTAATTATATATAGCCATTCTATCGGAGTCACCTAGTGCAG”, the binding signal is reported as 31700 fluorescence intensity (a.u.). With “CTCTCACTCTAATCATGCATTTAGACCGTTTCCATTTGCTCGGAGTCACCTAGTGCAG” the binding signal was 7380 fluorescence intensity (a.u.). “TTTCATAATTTTAAGCTTCCCTAAACAGGCCCTAAGCCTGCGGAGTCACCTAGTGCAG” was tested, and the binding signal was 3890 fluorescence intensity (a.u.). “AATACTTAATATAATTTCGTTATAGTGTTTCATCCATGGGCGGAGTCACCTAGTGCAG” was tested, and the binding signal was 4330 fluorescence intensity (a.u.). In the case of “GCCATTGACTGGTGGTGGTGCAGCAAGGATGAAGAGTCATCGGAGTCACCTAGTGCAG”, the binding signal is reported as 11000 fluorescence intensity (a.u.). For “CATTGACATGGAGTTATGGACACCCTTCCCGCATCCTCCCCGGAGTCACCTAGTGCAG”, the binding signal was 10900 fluorescence intensity (a.u.). In the case of “TTACTAATTACTTCCATATTAAAGCTATCATCAATCCATCCGGAGTCACCTAGTGCAG”, the binding signal is reported as 21800 fluorescence intensity (a.u.). For “ATTTAGATTGTTTAGGAAACTGTAGAGATTATAAAATAAGCGGAGTCACCTAGTGCAG”, the binding signal was 11700 fluorescence intensity (a.u.). With “TGGGTGGGCATCAATCTAGACCCAGTCCACGTACGTGGGGCGGAGTCACCTAGTGCAG” the binding signal was 3320 fluorescence intensity (a.u.). For “CGGACTGCAAAATTTGATGGGCCATACTACCACTACTTCCCGGAGTCACCTAGTGCAG”, the binding signal was 3410 fluorescence intensity (a.u.). “ATACTAGCTACTAATTAATGGATTAAGGTGATGTTATGGTCGGAGTCACCTAGTGCAG” was tested, and the binding signal was 7720 fluorescence intensity (a.u.). For “GCAAATTGCATCCTTTGCCAGCTGAGTAATATGAATTGTGCGGAGTCACCTAGTGCAG”, the binding signal was 4990 fluorescence intensity (a.u.). In the case of “CTCTAAATTTGATTAAGTTTGTAGACAAATATATTATAATCGGAGTCACCTAGTGCAG”, the binding signal is reported as 13500 fluorescence intensity (a.u.). “TTAAAGAAGCAATTAGTAAACAAATTAGAGAAGCAGATAGCGGAGTCACCTAGTGCAG” was tested, and the binding signal was 7290 fluorescence intensity (a.u.). For “GAAATTGATGAGTGGGTCCCACGTGTAGTTGAGCCAATCACGGAGTCACCTAGTGCAG”, the binding signal was 31400 fluorescence intensity (a.u.). In the case of “GAGTAAATTTAGTTCTTTCTTACTTATTCACGATTGCCGACGGAGTCACCTAGTGCAG”, the binding signal is reported as 9400 fluorescence intensity (a.u.). For “TATGTAATTTATTTTGTTATTAGACTACGTTTAATAGTTCCGGAGTCACCTAGTGCAG”, the binding signal was 6960 fluorescence intensity (a.u.). “GCCACGTTACTAGTTTAATTAGCAAGAGTGAAACCAATTTCGGAGTCACCTAGTGCAG” was tested, and the binding signal was 4470 fluorescence intensity (a.u.). “GCCTTTAAAACCAATAATTGCTATTGTTCTCTAGCTGTTGCGGAGTCACCTAGTGCAG” was tested, and the binding signal was 3720 fluorescence intensity (a.u.). In the case of “AATGAGCTATTAGATTGGCTATAGATGAATTAAAGCTAATCGGAGTCACCTAGTGCAG”, the binding signal is reported as 7950 fluorescence intensity (a.u.). “CCTGCTCCACATTACTACATGATTGCCACATGCTTCACATCGGAGTCACCTAGTGCAG” was tested, and the binding signal was 7420 fluorescence intensity (a.u.). “GATGAGCTATTAGCACATAATTAATTGAGTATTAACTATTCGGAGTCACCTAGTGCAG” was tested, and the binding signal was 8900 fluorescence intensity (a.u.). In the case of “ACACCCGTACTTTATTGATTTGTGGCTATCCAAATGTTGGCGGAGTCACCTAGTGCAG”, the binding signal is reported as 5520 fluorescence intensity (a.u.). With “TATATCTCAAATCATAATTATGGTTCAGTTTAACCCGATGCGGAGTCACCTAGTGCAG” the binding signal was 9750 fluorescence intensity (a.u.). In the case of “TTTTCTTTGATTAATGTGAGAATTTCTAGCCTCTAGAGCGCGGAGTCACCTAGTGCAG”, the binding signal is reported as 9310 fluorescence intensity (a.u.). For “ATCCTAACTCAAGCAATGATTGATAGGACTAAGGAAACACCGGAGTCACCTAGTGCAG”, the binding signal was 29600 fluorescence intensity (a.u.). For “CCAATCCTAATTGCTGTAATTACCCTCCGTGAATTATTGACGGAGTCACCTAGTGCAG”, the binding signal was 27500 fluorescence intensity (a.u.). For “TTAGGATGATTGATAAGTTTTAGAGCCTTCCTAATAGCACCGGAGTCACCTAGTGCAG”, the binding signal was 35900 fluorescence intensity (a.u.). “TCTGTAAATTACATCCAGAAACCAAGTGAACTATAGGTGGCGGAGTCACCTAGTGCAG” was tested, and the binding signal was 8100 fluorescence intensity (a.u.). “CTCAATGCGGTTTGATTGACGTGTAGAGCAGCCATTGGCCCGGAGTCACCTAGTGCAG” was tested, and the binding signal was 28500 fluorescence intensity (a.u.). In the case of “AAAGATTATTTCGATTTCTTTACTATATTTAGTACAATTGCGGAGTCACCTAGTGCAG”, the binding signal is reported as 3200 fluorescence intensity (a.u.). For “CTTCACTTAATTTGCTGTCTGTACAAACTACGAAGTAAACCGGAGTCACCTAGTGCAG”, the binding signal was 14200 fluorescence intensity (a.u.). With “TTAATTGATTGATTGATTGATTAATCCGTTGTGAATCTAACGGAGTCACCTAGTGCAG” the binding signal was 61500 fluorescence intensity (a.u.). For “CGCAGACAGAAACAGTCGGTGATCGATCGGCTTGATTCCTCGGAGTCACCTAGTGCAG”, the binding signal was 7530 fluorescence intensity (a.u.). For “CAGATTGGCCCACAAGAAACTTATCCCCAAGATATTTGTTCGGAGTCACCTAGTGCAG”, the binding signal was 5050 fluorescence intensity (a.u.). In the case of “AGAAGATTGAGCAAGTTCAACTGAAACCTAACTCGACAAGCGGAGTCACCTAGTGCAG”, the binding signal is reported as 6020 fluorescence intensity (a.u.). For “CAAAATTGCAGATGGGTATCAGATTTATGCTAAGTTGGATCGGAGTCACCTAGTGCAG”, the binding signal was 5480 fluorescence intensity (a.u.). “TATATATATATATATATATATATATAGAAATTAAGTCAAACGGAGTCACCTAGTGCAG” was tested, and the binding signal was 15900 fluorescence intensity (a.u.). In the case of “TGAAACTGTAAATTGGAGGTCTATATGTTTCATCCATTAACGGAGTCACCTAGTGCAG”, the binding signal is reported as 9700 fluorescence intensity (a.u.).
